# Laboratory results as given in PMC4336329 (PLoS ONE, 2015).
# Among all 310,000 compounds or so, about 2,200 (0.71%) showed an effect of 50% or more. Effects have a minus sign here. The list shows a part of the results.
# Biological target: human ether-à-go-go-related gene (hERG) potassium channel (human, UniProt Q12809)
# Assay: primary screen, population patch clamp on CHO cells stably expressing hERG
# Sequence of human ether-à-go-go-related gene (hERG) potassium channel (Q12809 whole entry, looked up): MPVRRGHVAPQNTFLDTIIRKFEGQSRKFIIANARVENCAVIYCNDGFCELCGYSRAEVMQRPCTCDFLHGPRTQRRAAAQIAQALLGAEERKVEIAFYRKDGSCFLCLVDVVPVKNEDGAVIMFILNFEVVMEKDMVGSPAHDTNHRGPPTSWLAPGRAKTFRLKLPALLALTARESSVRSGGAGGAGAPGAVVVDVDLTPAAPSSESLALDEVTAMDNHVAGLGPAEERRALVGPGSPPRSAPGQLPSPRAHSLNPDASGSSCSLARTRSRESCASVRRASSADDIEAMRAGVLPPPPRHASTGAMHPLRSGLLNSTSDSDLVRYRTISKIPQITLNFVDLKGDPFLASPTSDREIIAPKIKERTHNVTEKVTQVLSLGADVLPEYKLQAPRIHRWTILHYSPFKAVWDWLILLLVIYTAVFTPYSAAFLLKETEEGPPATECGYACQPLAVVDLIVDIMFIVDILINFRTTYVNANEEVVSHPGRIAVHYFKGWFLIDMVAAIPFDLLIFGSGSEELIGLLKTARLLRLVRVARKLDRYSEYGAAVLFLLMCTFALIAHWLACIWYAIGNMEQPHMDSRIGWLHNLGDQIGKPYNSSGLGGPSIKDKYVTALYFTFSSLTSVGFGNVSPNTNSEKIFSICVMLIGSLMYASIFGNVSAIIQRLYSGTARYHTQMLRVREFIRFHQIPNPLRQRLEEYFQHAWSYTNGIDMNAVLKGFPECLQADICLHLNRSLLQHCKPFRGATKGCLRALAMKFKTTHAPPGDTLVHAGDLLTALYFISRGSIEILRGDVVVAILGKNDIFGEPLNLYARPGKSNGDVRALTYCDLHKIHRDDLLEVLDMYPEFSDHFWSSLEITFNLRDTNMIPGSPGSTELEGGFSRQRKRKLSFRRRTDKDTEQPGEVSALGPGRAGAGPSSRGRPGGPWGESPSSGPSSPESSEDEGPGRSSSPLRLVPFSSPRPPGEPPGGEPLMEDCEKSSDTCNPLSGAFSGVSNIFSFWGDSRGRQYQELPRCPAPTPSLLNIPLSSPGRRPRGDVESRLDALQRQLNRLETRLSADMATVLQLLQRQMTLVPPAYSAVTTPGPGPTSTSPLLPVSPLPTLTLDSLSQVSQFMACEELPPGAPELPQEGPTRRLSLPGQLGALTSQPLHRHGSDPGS
row,Compound,"hERG current change (%, negative = inhibition) at 1uM"
1,Cc1cccc(NC(=O)Cc2ccc(Br)cc2)n1,14%
2,Cc1ccc2nc(NC(=O)CN(C)S(=O)(=O)c3ccc(Br)s3)sc2c1,4.93%
3,CCCCN(C(=O)c1cccc(S(=O)(=O)N2CCOCC2)c1)c1c(N)n(CCC)c(=O)[nH]c1=O,8.35%
4,Nc1nonc1-c1nc2ccccc2n1CC(=O)N/N=C\c1ccc(-c2ccc(Cl)cc2)o1,14.5%
5,O=C(CCSc1ccc(Cl)cc1)NC1CCCCC1,6.23%
6,Cc1ccc(SCC(=O)Nc2ccc(N3CCN(C)CC3)c(F)c2)c(C)c1,-47.8%
7,Cc1cc(N(CN2CCCC2=O)C(=O)c2ccccc2)no1,14.9%
8,CC(C)CCn1c(S(=O)(=O)O)nc2ccccc21,8.63%
9,CC1CCc2sc3nc(N4CCN(CCO)CC4)n4ncnc4c3c2C1 (stereo not shown),4.17%
10,C=CCOc1cc(OC)c(OC)c(OC)c1,11.1%
11,O=C(c1cc2ccccc2o1)N1CCCC1,15.7%
12,CN=C1S/C(=C\c2ccc(Cl)cc2)C(=O)N1C,18%
13,Br.COc1ccccc1Nc1nc(-c2cccc([N+](=O)[O-])c2)cs1,8.73%
14,Cc1nc2ccccn2c1C(=O)C(=O)Nc1cc(F)ccc1F,7.32%
15,CC1(c2ccc([N+](=O)[O-])cc2)NC(=O)N(CC(=O)Nc2cccnc2Cl)C1=O (stereo not shown),-1.41%
16,Cc1ccc(CC2S/C(=C(/C#N)C(=O)N3CCOCC3)N(c3ccccc3)C2=O)cc1 (stereo not shown),2%
17,Cc1c(C)c2c(c(C)c1O)CCC(C)(C(=O)O)O2 (stereo not shown),15.8%
18,CC(C)c1cc(NCc2ccccn2)n2c(nc3ccccc32)c1C#N,6.78%
19,COc1ccc(CC(=O)Oc2ccc(Cl)cc2Br)cc1S(=O)(=O)N1CCOCC1,14.4%
20,O=C(Oc1ccc(/C=N/NC(=O)c2ccccn2)cc1)c1cccc(F)c1,4.98%
21,CC(=O)N1c2ccc3ccccc3c2C2C=CCC2C1c1ccc(Br)cc1 (stereo not shown),10.9%
22,Cc1nc(-c2ccc(Cl)cc2)sc1C1(C)CC(c2ccc([N+](=O)[O-])cc2)=NO1 (stereo not shown),14.9%

row,Compound,"hERG current change (%, negative = inhibition) at 1uM"
1,CN(CC(=O)Nc1ccc(N2CCOCC2)cc1)C(=O)CCNC(=O)c1ccccc1Cl,18.1%
2,COC(=O)c1sccc1NC(=O)c1ccc(Cl)cc1,16.7%
3,CC1(C)CC(=O)C2=C(C1)N(c1ccccc1)C(=O)CC2c1ccc(O)cc1 (stereo not shown),9.62%
4,CCOC(=O)NC(=O)/C(N=Nc1ccc(C(F)(F)F)cc1)=C(\C)O,8.88%
5,O=C(O)/C=C/C(=O)NCCNc1ncc(C(F)(F)F)cc1Cl,13.2%
6,COc1ccc(Br)cc1CNC(=O)CN1C(=O)C(c2ccccc2)Oc2cccnc21 (stereo not shown),15.3%
7,CC(=O)c1nnn(-c2c(F)cccc2F)c1C,12.1%
8,C/C(=N\Nc1ccc(C(F)(F)F)cc1[N+](=O)[O-])C1CC1,0.694%
9,CC1(C)CC(=O)C(C=NCCc2ccc(S(N)(=O)=O)cc2)=C(O)C1,4.73%
10,CCOC(=O)C1(Cc2ccc(OC)cc2)CCN(C(=O)CCn2cccn2)CC1,7.89%
11,CCOC(=O)c1c(C)n(C)c2ccc(OC)c(NC(=O)CN3CCN(Cc4ccccc4)CC3)c12,8.02%
12,CCCNC(=O)c1ccc(COc2ccc(CCC)cc2OC)o1,-1.86%
13,C(#CCN1CCC(Cc2ccccc2)CC1)COCCOCc1ccccc1,9.32%
14,O=[N+]([O-])c1ccccc1/C=N/n1c(C(F)(F)F)n[nH]c1=S,8.32%
15,Cn1cc(/C=C/C(=O)N2CCCC(C(=O)c3ccc(C(F)(F)F)cc3)C2)cn1 (stereo not shown),7.37%
16,CC(C)(C)OC(=O)N1CCC(CC2CC(c3cccc(Br)c3)=NO2)(C(=O)O)CC1 (stereo not shown),7%
17,COc1ccccc1Nc1nc(-c2sc(N)nc2C)cs1,8.63%
18,COCCCNC(=O)c1cc(-c2cccnc2)nc2ccccc12,24.4%
19,O=C(O)CNC(=O)c1ccc(NC(=O)/C(=C/c2ccccc2)NC(=O)c2ccccc2)cc1,25.2%
20,COC(=O)c1cn(CC(=O)Nc2ccc(OC)cc2)c2ccccc12,14.4%
21,CCn1ncc(S(=O)(=O)Nc2cc(Cl)ccc2C)c1C,0.623%
22,CN1C(=O)c2ccc(NC(=O)c3ccc(Cl)cc3Cl)cc2C1=O,11.5%

row,Compound,"hERG current change (%, negative = inhibition) at 1uM"
1,O=C(NC1CCCCC1)c1cccnc1Sc1ccccc1,13.3%
2,COc1cc(NC(=O)c2ccc3c(c2)OCCO3)ccc1NC(=O)c1ccco1,10.5%
3,CC(C)CNC(=O)C(=O)NCC1OCCCN1S(=O)(=O)c1cccs1 (stereo not shown),14.3%
4,CNC(=O)COC(=O)c1ccccc1Oc1ccccc1,6.93%
5,COc1ccc(OC)c(S(=O)(=O)Nc2cccc3ccccc23)c1,12.8%
6,O=C(CN1CCOc2ccccc21)NCc1ccc(Cl)cc1,-2%
7,Cc1ccc(OCCC(=O)OCC(=O)N2c3ccccc3NC(=O)C2(C)C)cc1,-6.36%
8,O=C(c1cnn2c(C(F)F)cc(-c3ccccc3)nc12)N1CCN(Cc2ccc3c(c2)OCO3)CC1,11.1%
9,OC(CC1CC12c1ccccc1-c1ncccc12)(c1ccccc1)c1ccccc1 (stereo not shown),-3.31%
10,CN(C(=O)COc1ccc2ccc(=O)oc2c1)C1CCS(=O)(=O)C1 (stereo not shown),38.4%
11,COc1ccc(-c2nc3ccccc3s2)cc1NC(C)=O,3.12%
12,CCOC(=O)Cc1csc(NS(=O)(=O)c2cccc([N+](=O)[O-])c2)n1,16.3%
13,O=C(O)Cc1ccc(C(=O)CSc2ccccc2)s1,16.3%
14,O=C(CN1C(=O)NC2(CCCC2)C1=O)OCCOc1cccc(Br)c1,9.33%
15,S=C(c1ccc2c(c1)OCO2)N1CCOCC1,11.9%
16,CC(=O)N1CCC(C(=O)N2CCN(S(=O)(=O)c3cccs3)CC2)CC1,6.09%
17,CCCOc1ccc(C(=O)CCC(=O)OCC(=O)Nc2ccc(OCC)cc2)cc1,14.3%
18,Cc1ccc(CN2CCN(/N=C/c3cc(Br)cc(Br)c3O)CC2)c(C)c1,5.62%
19,CC(C)c1cc(C(=O)N/N=C/c2ccco2)n[nH]1,1.94%
20,CCOC(=O)CCn1cnc2ccc([N+](=O)[O-])cc2c1=O,-6.65%
21,CC(C)CCNC(=O)c1c(CSc2ccccc2)noc1C(=O)NCc1ccccc1,1.86%
22,Cc1cccc(NCC(=O)N/N=C\c2cccc(Oc3ccccc3)c2)c1,9.78%

row,Compound,"hERG current change (%, negative = inhibition) at 1uM"
1,COC(=O)C1=C(C)N(c2ccc(C)cc2)/C(=C/c2cccs2)C1=O,15%
2,CCOC(=O)C1CCCN(C(=O)C(=O)Nc2ccc3nc4n(c(=O)c3c2)CCCCC4)C1 (stereo not shown),12.7%
3,CCOC(=O)c1c(C)cc(=O)oc1C,4.19%
4,COc1ccc(CNC(=O)COC(=O)c2ccc(Br)cc2)cc1,3.16%
5,O=C(N/N=C\C=C\c1ccc2c(c1)OCO2)c1ccc(F)cc1,15.6%
6,COc1ccc(C(C)=O)cc1CSc1nc(C)cc(C)n1,10.8%
7,O=c1c2c(nc3c(-c4cccc(Br)c4)c[nH]n13)CCCC2,4.62%
8,C/C(=N\NC(=O)Cc1c(C)[nH][nH]c1=O)c1ccc(Cl)c(Cl)c1,12.3%
9,CCOc1ccc(C2=Nc3ccccc3C(c3ccc(N4CCOCC4)cc3)=NN2)cc1,8.07%
10,Cc1onc(-c2ccccc2Cl)c1C(=O)Nc1cccc2nsnc12,8.96%
11,CC1CCN(C(=O)COC(=O)c2cccc(NS(=O)(=O)c3ccccc3)c2)CC1,8.15%
12,COC(=O)[C@]1(C)N[C@H](c2ccc(-c3ccc(F)cc3)cc2)[C@@H]2C(=O)N(C)C(=O)[C@@H]21.O=C(O)C(F)(F)F,4.62%
13,Cc1ccc(C2/C(=C(\O)c3ccc4c(c3)OCCO4)C(=O)C(=O)N2Cc2cccnc2)cc1 (stereo not shown),9.79%
14,O=C(COc1ccccc1)NCCc1cn2ccsc2n1,12.3%
15,Cc1cccc(-c2nnc(SCC(=O)NC3CC3)n2C)c1,13.3%
16,CC(C)c1ccc(NC(=O)[C@@H](NC(=O)N2CC(=O)Nc3ccccc32)C(C)C)cc1,7.02%
17,CC(=O)Nc1ccc(S(=O)(=O)Nc2ccc(Cl)nn2)cc1,8.13%
18,Cc1c(C)n(Cc2ccc(Cl)cc2)c2ccc(C(=O)NCCCN3CCOCC3)cc12,13.9%
19,O=C(/C=C/Nc1ccccc1F)c1ccc(Br)cc1,10.1%
20,O=C(NC1CCCCCC1)c1cc(S(=O)(=O)N2CCOCC2)ccc1N1CCCCC1,-7.91%
21,NC(=O)COc1cc2oc(=O)c3c(c2cc1Cl)CCCC3,16.9%
22,CC(C)(C)OC(=O)N1CCC(c2c(C(=O)N3CCN(C(=O)c4ccco4)CC3)cnn2-c2cccc(Cl)c2)CC1,1.35%
